# From the supplement of paper PMC3334620
# Whole data set: some 33,000 sequences, median “E-score (-0.5 to 0.5)” near -0.035, cut for the highest 2% near 0.35. The list shows a part of the results.
# Molecular target: T1, Pdr3 (UniProt P33200)
# T1 sequence: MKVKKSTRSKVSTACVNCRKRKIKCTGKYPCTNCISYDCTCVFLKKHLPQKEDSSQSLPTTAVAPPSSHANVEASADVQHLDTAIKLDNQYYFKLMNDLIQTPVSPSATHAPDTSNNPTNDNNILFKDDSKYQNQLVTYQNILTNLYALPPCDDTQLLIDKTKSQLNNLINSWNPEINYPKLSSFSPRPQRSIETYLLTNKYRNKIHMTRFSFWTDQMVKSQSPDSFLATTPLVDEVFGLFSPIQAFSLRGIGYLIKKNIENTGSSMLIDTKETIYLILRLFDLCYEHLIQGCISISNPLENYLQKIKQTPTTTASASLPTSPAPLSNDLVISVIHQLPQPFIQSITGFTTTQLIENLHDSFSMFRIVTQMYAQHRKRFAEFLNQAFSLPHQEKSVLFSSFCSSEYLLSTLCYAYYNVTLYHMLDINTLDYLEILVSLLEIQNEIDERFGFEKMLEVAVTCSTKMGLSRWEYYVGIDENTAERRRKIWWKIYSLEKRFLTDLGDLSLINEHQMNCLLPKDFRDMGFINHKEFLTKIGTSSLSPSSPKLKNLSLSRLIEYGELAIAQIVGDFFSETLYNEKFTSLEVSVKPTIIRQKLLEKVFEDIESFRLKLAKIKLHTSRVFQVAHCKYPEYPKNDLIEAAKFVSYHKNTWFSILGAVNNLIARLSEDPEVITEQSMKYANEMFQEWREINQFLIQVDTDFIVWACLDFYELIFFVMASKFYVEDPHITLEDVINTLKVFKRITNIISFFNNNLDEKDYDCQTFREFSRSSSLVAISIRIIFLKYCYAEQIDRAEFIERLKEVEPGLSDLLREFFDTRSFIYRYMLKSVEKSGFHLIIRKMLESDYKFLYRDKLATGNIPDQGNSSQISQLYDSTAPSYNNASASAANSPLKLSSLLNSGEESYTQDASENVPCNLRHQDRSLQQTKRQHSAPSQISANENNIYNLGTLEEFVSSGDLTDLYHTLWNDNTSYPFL
# Test: PBM E-score (8-mer binding enrichment) (E-score (-0.5 to 0.5)); higher = stronger / more preferred TF binding; most listed sequences are background and not binding sites
# Conditions: protein concentration: 200 nM; construct: GST-full length
# Method in brief: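 Yeast transcription factors carrying a GST tag, as full-length proteins or DNA-binding domains, were produced by PURExpress in vitro transcription/translation. About 100-200 nM protein was applied to universal all-10-mer Agilent arrays, double-stranded by primer extension on fresh or once-stripped slides. Bound protein was detected with fluorescent anti-GST, and scans were normalised with masliner. The Universal PBM Analysis Suite gave each ungapped eight-base word, pooled with its reverse complement, an E-score, a modified Wilcoxon-Mann-Whitney statistic.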
row,Sequence,PBM E-score
1,GAACTGTA,0.129
2,CTGTCAAC,-0.0859
3,GGCATCAA,-0.169
4,CAAATAGG,-0.103
5,CCATCACG,-0.0266
6,ACACGACC,0.00705
7,GTAGTGCA,-0.00877
8,AGACTTGG,-0.24
9,AATCAGCA,-0.137
10,ACAACATA,0.0189
11,GACGACCA,-0.115
12,AATTTGTA,-0.0191
13,TAGCTCGA,-0.025
14,CCTTCTGC,-0.119
15,AATTCGCG,0.138
16,AGGATAAA,-0.128
17,ACCAACGC,0.0347
18,AGGAAACA,-0.0166
19,CTGATGGC,-0.00783
20,ATTGTTAG,-0.0868
21,GTATTCTA,-0.0358
22,CAATCTGC,-0.132
23,GATGAGTA,-0.00761
24,CAGCGTCC,0.0532
25,CAAACACC,0.0018

row,Sequence,PBM E-score
1,ATTCCGGC,0.448
2,AACGCTCA,-0.208
3,CCACTTAG,-0.149
4,CCTGCCCC,-0.129
5,CTATTATC,0.0421
6,CTCTAAGA,-0.0138
7,GACTCAAA,-0.197
8,CCCTCGTC,0.0176
9,CGTCCTGA,-0.113
10,CTCAAAAC,-0.118
11,CGGGATGA,0.369
12,CAGTTTAG,-0.233
13,CAAACCTC,-0.206
14,GTGGCTGA,0.0919
15,GTAGGGAA,-0.00713
16,GTCTTACA,-0.255
17,ACAGCTTC,-0.143
18,CAAAACCA,-0.0341
19,GAATCTTA,0.0385
20,ATAAGTGC,-0.105
21,GATTCACA,-0.103
22,AAAACCTG,-0.197
23,GTCTCAAA,-0.115
24,AACGTTAT,-0.106
25,ATTGCGGG,0.228

row,Sequence,PBM E-score
1,CCGGATCG,0.391
2,ACGTAACT,-0.363
3,CTCATTCC,0.356
4,ACATACCA,-0.0697
5,GGTCGGGA,0.283
6,CGCATGGC,0.158
7,GAAAGACA,0.0212
8,CGGCAATC,0.299
9,AGTATTTG,-0.277
10,GATGACGC,-0.0417
11,AGAGCAAC,-0.197
12,GTGTGCCA,-0.147
13,CTGTGAGA,-0.158
14,AAGCGCTC,-0.00902
15,ATTCCTAC,-0.0807
16,AAGTCAAT,-0.134
17,ATTATCCG,0.388
18,AGTCACGA,-0.132
19,CGTTACTA,-0.223
20,CCGGAGGC,0.292
21,CTCTCACA,0.00281
22,CGTTCTGA,-0.128
23,GCAGTTCA,-0.135
24,AGAACTCG,-0.0518
25,CAGGTTTC,0.03

row,Sequence,PBM E-score
1,CCGGGTTA,0.353
2,AAGACCGA,0.0803
3,AGCGCTAT,0.134
4,CCACCCAC,-0.0558
5,AGTGAGGC,0.0166
6,GCCTGCTA,-0.111
7,AGCACGAA,0.0983
8,CTTATGCA,-0.231
9,GTAAGTAC,0.0168
10,AGGTTCTC,0.0533
11,CTTCGGCA,0.153
12,ACCAAATC,0.031
13,AGATTACC,0.0293
14,GAGACTTA,-0.319
15,AGCCATAA,-0.143
16,AGACATCC,0.0233
17,CTCCATGA,-0.0454
18,AAGCGTAA,-0.111
19,TCAAACGA,-0.15
20,GACATATA,0.0101
21,CATTTTAC,0.141
22,ATTCATTC,0.135
23,AGGCCCCT,-0.241
24,TACTGCGA,-0.1
25,CACGGACA,0.355

row,Sequence,PBM E-score
1,ACGAGTTA,-0.116
2,CCCCAAGA,-0.154
3,GCAGCTTA,-0.121
4,CGCTATTC,0.105
5,AATGCCTC,-0.142
6,CAGCCGTC,0.134
7,ATTGTATG,-0.051
8,TAGTAACA,-0.00956
9,AAATTGTA,-0.0156
10,CCTCCCAC,-0.0847
11,TAATGGTA,-0.146
12,TAATTGCA,0.0881
13,ATACCGCC,0.212
14,ATCTGGCC,0.0154
15,GTCTTGTA,-0.206
16,GTCTAGAC,-0.293
17,ACTTACCC,0.0368
18,CCTGATGA,0.0476
19,AAGAATCG,0.132
20,GACAACGC,-0.0869
21,ACTTCGTA,-0.166
22,AGCGTCAG,-0.239
23,GTAAGCTA,0.0325
24,CAAACAAC,0.0713
25,ATAAACCC,0.0891

row,Sequence,PBM E-score
1,ACTTCTGA,-0.109
2,ACTACCTC,-0.108
3,CCCACACA,-0.0792
4,ACGACCTG,-0.304
5,TAAGCCGA,0.0963
6,AAGTGAGC,-0.129
7,GGGGATGA,0.0246
8,AACTCCTT,-0.0186
9,GAGTCATC,0.00177
10,CTGGATGC,-0.212
11,CCGTTGCA,0.0645
12,ACGTGCAG,-0.0936
13,GTTATGAA,-0.131
14,CAATTGAA,-0.0875
15,ACCTACCG,-0.0917
16,CGCTGAAG,0.0229
17,ACCTCGCG,0.0282
18,CTCTTTGA,-0.245
19,ATCAATTG,0.0139
20,GCCACCCA,-0.078
21,ATGAAGGA,-0.0858
22,GACAGAAC,0.0194
23,CTGCAAGA,-0.0813
24,ATAACCAT,-0.0749
25,ACCCCATG,-0.0104

row,Sequence,PBM E-score
1,GCTCCATA,-0.0492
2,CGTGCTCC,0.259
3,ATTATCGG,0.17
4,GGGAGTCA,-0.166
5,ACCCCGGG,0.376
6,AGAGTCCA,-0.0906
7,ATTCGGTG,-0.0461
8,AAGCTACT,-0.124
9,CTACCGGC,-0.0343
10,ACCTTGCG,0.0636
11,CAAAGAAA,-0.112
12,GACTGACA,-0.0824
13,GACTCTCC,-0.0131
14,AAATCCGT,0.246
15,AACAGCTC,0.00466
16,GCGCCCCA,0.145
17,AGGAAATG,-0.0576
18,TAAGTAAA,-0.213
19,AACCGCCT,0.167
20,ACGATTAT,0.174
21,AGCAGGTG,-0.0137
22,ATATGAAG,0.0475
